Test results from the supplement of paper PMC10126150.
Values marked as one replicate rest on one cluster of the flow cell; about a third of the high ones do not repeat.

Tested on: ATP
Assay: switch fluorescence ratio, 500 uM ATP over buffer (Cy3 cluster intensity, sum of 5 cycles each) (fold (ratio)); higher = stronger signal-on switching upon ATP binding; sequences stand for … in TCGTCGGCAGCGTCAGATGTGTATAAGAGACAGTTTTTTTTTTTTTTTTTTTTTTTTT…TC
Settings: aptamer strand: ATP DNA aptamer (quencher-CACCTGGGGGAGTATTGCGGAGGAAGG + anchor), 100 nM annealed; ATP concentration: 500 uM; one replicate
Procedure, shortened: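 Imaging in selection buffer was followed by imaging after 15 min with 500 uM ATP at 22 °C, for Cy3-labelled switching-strand clusters annealed to 100 nM quencher-labelled ATP aptamer on a modified Illumina MiSeq flow-cell. Five of these buffer/ATP cycles ran, separated by NaOH stripping and re-annealing. The fluorescence ratio per cluster is summed target-cycle over summed buffer-cycle Cy3 intensity, averaged per switch-domain sequence; clusters outside 100-1000 RFU were removed.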
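Also: ATP exposure 15 min at 22 °C before imaging.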

Sequence: ACCGCATAGA
- switch fluorescence ratio: 1.21

Sequence: TGATTGTGCT
- switch fluorescence ratio: 1.03

Sequence: GAATAAGATG
- switch fluorescence ratio: 1.02

Sequence: CCTGGCCGGG
- switch fluorescence ratio: 0.966

Sequence: CCACTGGTTA
- switch fluorescence ratio: 1.02

Sequence: GGGACTGCGG
- switch fluorescence ratio: 0.911

Sequence: TGGTCAACAT
- switch fluorescence ratio: 1.01

Sequence: TTGTCATACG
- switch fluorescence ratio: 0.988

Sequence: TTAGTTGCAG
- switch fluorescence ratio: 0.987

Sequence: AAGTGCGGGG
- switch fluorescence ratio: 0.991

Sequence: CTAACGGAGA
- switch fluorescence ratio: 1

Sequence: GGATTCGCT
- switch fluorescence ratio: 0.956

Sequence: AGTCCCTCTG
- switch fluorescence ratio: 1.07

Sequence: CCATTAGTTA
- switch fluorescence ratio: 1.03

Sequence: AGAGGAGA
- switch fluorescence ratio: 1.02

Sequence: TAGTTAACCG
- switch fluorescence ratio: 1

Sequence: AACGACGTGC
- switch fluorescence ratio: 1.13

Sequence: TTTAACGCGT
- switch fluorescence ratio: 0.975

Sequence: ACGTGCCGTG
- switch fluorescence ratio: 1

Sequence: CATGGGTCAA
- switch fluorescence ratio: 1.04

Sequence: TTTTCATGGA
- switch fluorescence ratio: 0.978

Sequence: ATAGTGTGCT
- switch fluorescence ratio: 1.01

Sequence: TCGACTACGC
- switch fluorescence ratio: 1.16

Sequence: TCTCGGAAC
- switch fluorescence ratio: 1.42

Sequence: CACCCAACCG
- switch fluorescence ratio: 1.15

Sequence: AACGCTATTT
- switch fluorescence ratio: 1.13

Sequence: TGGCTTCGCT
- switch fluorescence ratio: 0.983

Sequence: CGCTGCTTTA
- switch fluorescence ratio: 1.09

Sequence: GCCTGGGTCT
- switch fluorescence ratio: 1.02

Sequence: TGTGTTATG
- switch fluorescence ratio: 0.972

Sequence: ATAGAGGGGA
- switch fluorescence ratio: 0.983

Sequence: AATGAGTGA
- switch fluorescence ratio: 0.965

Sequence: CTATTTCGA
- switch fluorescence ratio: 1.01

Sequence: ACCTAGGTAT
- switch fluorescence ratio: 0.965

Sequence: CAACCTAAGC
- switch fluorescence ratio: 0.991

Sequence: TTGGAGGGAC
- switch fluorescence ratio: 0.962

Sequence: TAGAATAGGG
- switch fluorescence ratio: 1.03

Sequence: CGTTTGGACT
- switch fluorescence ratio: 0.978

Sequence: CGCCTTATTT
- switch fluorescence ratio: 0.98

Sequence: TGAAGCACC
- switch fluorescence ratio: 1.28

Sequence: TTCCCGGGTC
- switch fluorescence ratio: 1.04

Sequence: GCGATCGTCA
- switch fluorescence ratio: 0.954

Sequence: GCTCTCCTCA
- switch fluorescence ratio: 1.1

Sequence: ATCCAGTCGC
- switch fluorescence ratio: 1.03

Sequence: ATTAAAGCAT
- switch fluorescence ratio: 1.02

Sequence: TTAGACTTAC
- switch fluorescence ratio: 1.28

Sequence: TTAGCAGTTA
- switch fluorescence ratio: 1.26

Sequence: AATGCGGGCC
- switch fluorescence ratio: 1.01

Sequence: CTTACGCGGG
- switch fluorescence ratio: 1.02

Sequence: CTTTGCTAAA
- switch fluorescence ratio: 1

Sequence: CCATTCAGGA
- switch fluorescence ratio: 1.06

Sequence: CAATTCAGGT
- switch fluorescence ratio: 1.02

Sequence: ATAGAACGGC
- switch fluorescence ratio: 1.05

Sequence: CGTCGTTTGT
- switch fluorescence ratio: 0.968

Sequence: CTGTGATGCG
- switch fluorescence ratio: 0.942

Sequence: ACAGCGGTTG
- switch fluorescence ratio: 1.03

Sequence: TCTCTAACGC
- switch fluorescence ratio: 1.1

Sequence: TGGTAGGATC
- switch fluorescence ratio: 0.979

Sequence: TGATCTGTG
- switch fluorescence ratio: 0.959

Sequence: GTTCTACGGA
- switch fluorescence ratio: 1.01

Sequence: CGGGGTGACC
- switch fluorescence ratio: 0.985

Sequence: ATTAAGCCCC
- switch fluorescence ratio: 1.01

Sequence: GCCAAGGGAA
- switch fluorescence ratio: 0.993

Sequence: TACGAATGGA
- switch fluorescence ratio: 1.01

Sequence: GATATTATGT
- switch fluorescence ratio: 1.01

Sequence: CATAAGAAAA
- switch fluorescence ratio: 1.02

Sequence: GGGTATCGGT
- switch fluorescence ratio: 0.992

Sequence: GGCATATCCG
- switch fluorescence ratio: 0.991

Sequence: AAAGGCGCCG
- switch fluorescence ratio: 1

Sequence: CAGCCTGGAA
- switch fluorescence ratio: 1.07

Sequence: AAAAAGAAA
- switch fluorescence ratio: 1.02

Sequence: ACGCTGGGTC
- switch fluorescence ratio: 1.07

Sequence: TTCGTGCCTG
- switch fluorescence ratio: 1.03

Sequence: CCGTCTAGGC
- switch fluorescence ratio: 1.06

Sequence: AGAATTCGGA
- switch fluorescence ratio: 0.997

Sequence: ACATTATA
- switch fluorescence ratio: 1.05

Sequence: CCTGCTAAAT
- switch fluorescence ratio: 1.23

Sequence: AGTTACCAAG
- switch fluorescence ratio: 1.05

Sequence: AGTATACGCC
- switch fluorescence ratio: 1.03

Sequence: AAGCTCTATT
- switch fluorescence ratio: 0.975

Sequence: GAGTGAAACT
- switch fluorescence ratio: 0.988

Sequence: CCTAACCGAC
- switch fluorescence ratio: 2.34

Sequence: CCTGGGCTAT
- switch fluorescence ratio: 1.09

Sequence: CGAAATGGGA
- switch fluorescence ratio: 0.994

Sequence: AGGAACGAAG
- switch fluorescence ratio: 0.995

Sequence: TCCGAAATAC
- switch fluorescence ratio: 1.5

Sequence: TTGGTTAGCA
- switch fluorescence ratio: 1.01

Sequence: CGGTGGCTGT
- switch fluorescence ratio: 1.01

Sequence: GCCCGTTCCG
- switch fluorescence ratio: 1.03

Sequence: GATCTTTTTA
- switch fluorescence ratio: 1.05

Sequence: GTAGGGCCTC
- switch fluorescence ratio: 1.01

Sequence: TTCGATGGAG
- switch fluorescence ratio: 1.02

Sequence: GGGACAACGG
- switch fluorescence ratio: 1.07

Sequence: GCATTTGGAA
- switch fluorescence ratio: 0.969

Sequence: CCCGGTAGTT
- switch fluorescence ratio: 1.03

Sequence: CCAGGAAAAG
- switch fluorescence ratio: 1.02

Sequence: CCAAGGCTAG
- switch fluorescence ratio: 1.04

Sequence: TCTTTTTC
- switch fluorescence ratio: 1.16

Sequence: GAGTGGCTAG
- switch fluorescence ratio: 0.978

Sequence: GCCCCTTTAT
- switch fluorescence ratio: 1.01

Sequence: AGTACCGTCA
- switch fluorescence ratio: 0.988

Sequence: GGCCCAAAGG
- switch fluorescence ratio: 0.987

Sequence: TTCTCAGGTA
- switch fluorescence ratio: 1.06

Sequence: GTGATCGTTT
- switch fluorescence ratio: 0.946

Sequence: TTACCTGTCA
- switch fluorescence ratio: 1

Sequence: TTCTTCAACG
- switch fluorescence ratio: 1.05

Sequence: AATCGAATCG
- switch fluorescence ratio: 0.985

Sequence: CCAACACGCC
- switch fluorescence ratio: 1.27

Sequence: CCACCCACTC
- switch fluorescence ratio: 1.86

Sequence: GACGCATGCT
- switch fluorescence ratio: 2.79

Sequence: TTTACTGCGG
- switch fluorescence ratio: 1

Sequence: CCCTGATCTC
- switch fluorescence ratio: 1.12

Sequence: AAGCTTGTC
- switch fluorescence ratio: 1.05

Sequence: TTTATCTACT
- switch fluorescence ratio: 1

Sequence: TGGTGAACAT
- switch fluorescence ratio: 1.01

Sequence: CCAACGCAGG
- switch fluorescence ratio: 4.37

Sequence: TCTAGTCTGT
- switch fluorescence ratio: 1.01

Sequence: TTAACTCCTT
- switch fluorescence ratio: 1.05

Sequence: TGAAGTAGG
- switch fluorescence ratio: 1.01

Sequence: TTCAACTAGC
- switch fluorescence ratio: 1.05

Sequence: CGTACAAGTA
- switch fluorescence ratio: 1.04

Sequence: AGGGCCGGGG
- switch fluorescence ratio: 1.01

Sequence: AGGTCTTATC
- switch fluorescence ratio: 1.05

Sequence: GGGGCAGCT
- switch fluorescence ratio: 0.971

Sequence: TGCTGCGCCG
- switch fluorescence ratio: 1.02

Sequence: CCCGCGGGG
- switch fluorescence ratio: 1.08

Sequence: GCGGGTTGTC
- switch fluorescence ratio: 1.01

Sequence: CCGGAGACAG
- switch fluorescence ratio: 4.45

Sequence: TGTGACTCA
- switch fluorescence ratio: 1.03

Sequence: CCCCGGGAAG
- switch fluorescence ratio: 1.28

Sequence: CTTTCAACG
- switch fluorescence ratio: 1.03

Sequence: TACTTGTCTA
- switch fluorescence ratio: 0.995

Sequence: TTCAGGGAA
- switch fluorescence ratio: 1.03

Sequence: AGTGAGTGGC
- switch fluorescence ratio: 1.07

Sequence: CATGATCCAG
- switch fluorescence ratio: 0.98

Sequence: ATGCGTGGG
- switch fluorescence ratio: 1.01

Sequence: TTTTGACTAG
- switch fluorescence ratio: 0.972

Sequence: GCACCTTCAC
- switch fluorescence ratio: 2.07

Sequence: CAGTCTACG
- switch fluorescence ratio: 1.04

Sequence: ATGACAGCAT
- switch fluorescence ratio: 1.08

Sequence: GCACATCCTC
- switch fluorescence ratio: 1.1

Sequence: GCAGGTGGCC
- switch fluorescence ratio: 1.04

Sequence: CTAATTTCGG
- switch fluorescence ratio: 0.975

Sequence: TACCGTCACC
- switch fluorescence ratio: 1.59

Sequence: GAGCGTTTGT
- switch fluorescence ratio: 0.985

Sequence: GCTGAGACTC
- switch fluorescence ratio: 1.06

Sequence: GTATAGCCTT
- switch fluorescence ratio: 0.989

Sequence: ACCCGGTCTT
- switch fluorescence ratio: 1.02

Sequence: ATGTATTGGC
- switch fluorescence ratio: 0.996

Sequence: TCAGCAAAAC
- switch fluorescence ratio: 2.18

Sequence: AGCCAAAGC
- switch fluorescence ratio: 1.05

Sequence: CCATTGATAT
- switch fluorescence ratio: 0.985

Sequence: CAAACTATTC
- switch fluorescence ratio: 0.96

Sequence: CGTCGGATG
- switch fluorescence ratio: 1.03

Sequence: CGGTGTGGTC
- switch fluorescence ratio: 0.969

Sequence: AGAAGGAGCA
- switch fluorescence ratio: 1.01

Sequence: ATTCAAGGA
- switch fluorescence ratio: 0.971

Sequence: GGTCTGCGTA
- switch fluorescence ratio: 1.07
